In the supplement of paper PMC3334620:
The full ranking holds about 33,000 sequences; the median of “E-score (-0.5 to 0.5)” is about -0.012, and the highest 2% start at about 0.27. The list shows a part of the results.

Target: T1, Vhr1 (UniProt P40522)
T1 sequence: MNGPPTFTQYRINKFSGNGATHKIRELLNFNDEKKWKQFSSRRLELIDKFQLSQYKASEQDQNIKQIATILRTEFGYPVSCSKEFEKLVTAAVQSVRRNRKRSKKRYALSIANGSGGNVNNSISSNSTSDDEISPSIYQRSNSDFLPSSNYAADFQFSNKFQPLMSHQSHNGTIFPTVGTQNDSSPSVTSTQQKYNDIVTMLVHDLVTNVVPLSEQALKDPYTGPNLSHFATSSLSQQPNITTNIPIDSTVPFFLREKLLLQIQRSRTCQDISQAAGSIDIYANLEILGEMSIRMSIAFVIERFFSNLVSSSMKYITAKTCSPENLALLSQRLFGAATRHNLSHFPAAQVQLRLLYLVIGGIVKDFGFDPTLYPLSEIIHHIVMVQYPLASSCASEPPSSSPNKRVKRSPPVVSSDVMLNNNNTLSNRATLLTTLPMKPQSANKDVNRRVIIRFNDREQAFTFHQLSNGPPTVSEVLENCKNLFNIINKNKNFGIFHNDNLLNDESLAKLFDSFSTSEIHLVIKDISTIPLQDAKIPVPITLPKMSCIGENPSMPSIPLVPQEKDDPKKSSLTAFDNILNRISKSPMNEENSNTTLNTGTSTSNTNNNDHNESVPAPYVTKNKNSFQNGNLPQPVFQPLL
Assay: PBM E-score (8-mer binding enrichment) (E-score (-0.5 to 0.5)); higher = stronger / more preferred TF binding; most listed sequences are background and not binding sites
Conditions: protein concentration: 200 nM; construct: GST-full length
Procedure, shortened: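 Full-length yeast transcription factors or their DNA-binding domains, GST-tagged and expressed with PURExpress, were applied at about 100-200 nM to universal all-10-mer Agilent arrays. These arrays had been made double-stranded by primer extension on fresh or once-stripped slides. Detection used fluorescent anti-GST, normalisation used masliner, and E-scores for ungapped eight-base words pooled with reverse complements came from the Universal PBM Analysis Suite.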

Sequence	PBM E-score
ACATGAGC	0.0844
GAACGATA	-0.0543
CAGACCCC	-0.245
ACCTCTGG	-0.162
AAACCCTA	-0.0524
CTCGAAAA	-0.111
CAAAAACG	0.00433
CGGGGGCA	-0.141
CAACCAAG	-0.00427
CACCGCCA	0.242
GCGTCGCC	-0.0857
CAATTGCC	-0.139
ATGCCCAC	0.0501
CGGTTCTA	-0.0571
CTCCAACC	0.0667
TAGAGAGA	-0.0877
CCCCAGGG	-0.0705
ACAAATCA	0.125
AGAGATGG	-0.0539
GTGATAAC	-0.125
GGATCACA	0.06
GATAAATA	0.0772

Sequence	PBM E-score
GGCTAAAC	0.00088
TGGTTGAA	-0.0692
CACCGAAG	0.235
ATGATCCC	0.141
AACGTCAC	-0.0246
GGGCGCAA	0.0104
GGATTATA	0.0107
AGTTCGAG	0.0333
AAATTCAC	-0.0588
CAACGACA	0.121
CCTTAGTA	-0.0427
AACTCCGC	-0.0635
CAGACCTA	-0.0734
CGCAAGGC	0.00435
ATCCTACA	0.0126
CGGAGCAC	0.0672
ATCATGCG	0.283
ACGGGGAG	0.0405
CGTAACAG	0.0945
ATTCAAAG	-0.137
CGCGGGTC	0.209
CCGGCCCC	-0.0954

Sequence	PBM E-score
GTTATACA	0.108
ACCTTGAG	-0.0655
GGGTAAAC	0.0194
GAACAGTA	0.0579
ACCAGGGT	0.135
CAGAATGG	-0.0231
AAATGTGT	0.203
AGACGTCT	-0.286
AGCGAATA	-0.00991
TCAATGCA	-0.1
CTGATGTA	0.215
AACTGTAC	-0.211
GTGAATCA	0.394
ACGCAGGG	0.00883
AAGCGGGG	-0.113
CGTTTAAG	-0.155
AGCTCAGC	-0.232
AACCATCG	0.261
AAATTTAC	-0.135
GAAAAACC	-0.162
CTCGGTGC	0.0755
CGCACTGC	0.0693

Sequence	PBM E-score
AAATAGGG	-0.0434
GGCACTTA	-0.179
CAGTTAGG	-0.0792
AGTCTTAG	0.052
CACAGCTG	-0.0522
CTCACGGC	0.00316
ATTGTACC	0.0472
GGTACCGA	-0.184
TACGCCGA	-0.0327
AGGCAGTA	-0.0691
TAACGAAA	-0.0166
GAACATAC	0.00185
ACAAAAAC	-0.126
GGCAACAC	-0.0419
TCCGTACA	0.176
GTATCTAA	0.159
ATCTCGAC	0.0463
CGCAGATA	0.099
GAATGGCA	-0.0693
CAGGAGGA	-0.143
